Results are given in words; binding and its absence hold for the method and conditions named. For some assays here: Binding seen in cells or lysates may run through a third protein. Some binding calls cover weakened binding; strength is not graded here.
T1: trefoil factor interactions(z) 1 (TFIZ1) protein (human (endogenous in normal gastric mucosa)) (UniProt Q86XP6)
T1 sequence: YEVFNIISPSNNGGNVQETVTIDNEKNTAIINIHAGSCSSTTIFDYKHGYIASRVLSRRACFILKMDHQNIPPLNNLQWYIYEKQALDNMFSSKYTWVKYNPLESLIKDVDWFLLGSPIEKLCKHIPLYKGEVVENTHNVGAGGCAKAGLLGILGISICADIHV

T2: trefoil protein TFF1 (human (endogenous in normal gastric mucosa)) (UniProt P04155)
T2 sequence: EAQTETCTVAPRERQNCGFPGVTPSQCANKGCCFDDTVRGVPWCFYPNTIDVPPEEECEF

B1: trefoil protein TFF1 (protein, UniProt P04155 25-84)
chain: T2 sequence
B2: trefoil factor interactions(z) 1 (TFIZ1) protein (protein, UniProt Q86XP6 21-184)
chain: T1 sequence

Key:
[1] = target: T1, trefoil factor interactions(z) 1 (TFIZ1) protein (human (endogenous in normal gastric mucosa)); assay: co-IP; TFIZ1 immunoprecipitated from normal human gastric cytosol with affinity-purified TFIZ1 antiserum conjugated to protein G Sepharose; 300 mM NaCl, 100 mM Tris-HCl pH 8.0, 0.2% Nonidet-P40, 4 °C overnight; Western transfer with TFF1, TFF2 or TFF3 antibody, reducing or non-reducing gels
[2] = target: T2, trefoil protein TFF1 (human (endogenous in normal gastric mucosa)); assay: non-reducing polyacrylamide gel electrophoresis and Western transfer; cytosol of normal human gastric mucosa electrophoresed without β-mercaptoethanol; TFIZ1 antiserum or TFF1 antibody; shows covalently bound forms
[3] = target: T1, trefoil factor interactions(z) 1 (TFIZ1) protein (human (endogenous in normal gastric mucosa)); assay: as above
[4] = target: T2, trefoil protein TFF1 (human (endogenous in normal gastric mucosa)); assay: co-IP; TFF1 immunoprecipitated from normal human gastric cytosol with TFF1 monoclonal antibody conjugated to protein G Sepharose; 300 mM NaCl, 100 mM Tris-HCl pH 8.0, 0.2% Nonidet-P40, 4 °C overnight; Western transfer with TFIZ1 antiserum, non-reducing and reducing gels

Binder | binding [1] | binding [2] | binding [3] | binding [4]
B1 | binds | binds | binds | –
B2 | – | – | no binding | binds

Source: PMC2632736
